The campaign covered roughly 410,000 compounds. About 530 (0.13%) were called active. Inconclusive means that the source gave no clear call. Such entries were picked first, then a sample of the others. The call rests on the fitted dose curve; in most records, active means well fitted inhibition curve with a large enough effect; inconclusive means small, poorly fitted or top-dose-only effect, or another doubt; inactive means no such curve, though single readings can be large or run the other way. Potencies of inconclusive entries are doubtful fits and often do not repeat.
Test: qHTS of GLP-1 Receptor Inverse Agonists: Cytotox Screen
Settings: HEK293 cAMP-luciferase reporter cells, luminescence, 24 h; activity change, negative = inhibition: at 38.3 µM (top of the series) unless noted
Summary of the method: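 MLSMR compounds, 24 hr on cells at 37 deg C/5% CO2; luminescence after luciferase reagent (12 min RT). Inhibition counted as the undesired cytotoxic outcome.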
On the % scale 0 is the no-effect control and ±100 the full control effect; potency means the concentration at half of the fitted maximal effect.

| Compound | Potency | activity change, negative = inhibition |
| --- | --- | --- |
| CN(C)CCn1c(=O)n(-c2cccc(Cl)c2)c(=O)c2c3c(sc21)CCCCC3 | inconclusive: 12.6 µM [inhibitor, single point] |  |
| CNc1ncnc2c1ncn2[C@H]1CN(Cc2cccc3ccccc23)C[C@@H](CO)O1 | inactive |  |
| CCOc1ccccc1N(C)C(=O)Cn1ncc2c([nH]c3ccc(C)cc32)c1=O | inconclusive: 7.94 µM [inhibitor, partial curve] |  |
| Cc1nn(-c2ccccc2)c(C)c1/C=N/NC(=O)c1cc(-c2ccc(Cl)s2)[nH]n1 | inconclusive: 0.708 µM [inhibitor, full curve, poor fit] |  |
| O=S(=O)(Nc1ccc(Cc2ccncc2)cc1)c1ccc(Cl)c(Cl)c1 | active: 10 µM |  |
| O=[N+]([O-])c1nc2ccccc2[nH]1 | inconclusive: 12.6 µM [inhibitor, single point] |  |
| CCc1ccccc1NC(=O)N1CC(C)Sc2ccccc21 (stereo unspecified) | inconclusive: 14.1 µM [inhibitor, partial curve, poor fit] |  |
| Cc1cccc(Oc2nc3ccccn3c(=O)c2/C=C(\C#N)C(=O)NC2CCS(=O)(=O)C2)c1 (stereo unspecified) | inactive |  |
| NC(=S)N=Nc1c(O)n(CC(=O)Nc2ccccc2)c2ccccc12 | inconclusive: 2.51 µM [inhibitor, partial curve, poor fit] |  |
| CC(C)C[C@@H](CO)N1CCN(CC(C)C)CCC1=O | inconclusive: 28.2 µM [inhibitor, single point] |  |
| O=C(O)c1cccc(NC2=C(Cl)C(=O)c3ccccc3C2=O)c1 | inconclusive: 28.2 µM [inhibitor, single point] |  |
| Cc1ccc(NS(=O)(=O)c2cc(-c3cnc(C4CC4)o3)ccc2C)cc1Cl | inconclusive: 1 µM [inhibitor, full curve, poor fit] |  |
| C=CCn1c(=O)/c(=C/c2ccc(Cl)cc2)s/c1=C(/C#N)c1nnc2n1CCCCC2 | inconclusive: 0.501 µM [inhibitor, full curve, poor fit] |  |
| CCc1ccc(NC(=O)CCNS(=O)(=O)c2ccc3c(c2)oc(=O)n3C)cc1 | inactive |  |
| CN(CCO)c1ccc(-c2n[nH]c(=O)c3ccccc23)cc1[N+](=O)[O-] | inconclusive: 10 µM [inhibitor, partial curve] |  |
| Cc1ccnc2c1ccc1c(C)ccnc12 | inconclusive: 0.891 µM [inhibitor, full curve] |  |
| Cc1ccc(-n2nc(C)c3c(C(=O)NCCc4ccccc4)cc(C)nc32)cc1 | inactive |  |
| COc1cccc(OCc2nc3ncc(Br)cc3[nH]2)c1 | inconclusive: 6.31 µM [inhibitor, partial curve, poor fit] |  |
| COc1ccccc1-c1cc(C(=O)Nc2cc(OC)c(OC)c(OC)c2)no1 | inconclusive: 2.24 µM [inhibitor, partial curve, poor fit] |  |
| COc1ccc(C(=O)NNc2ncnc3c2cnn3-c2cccc(Cl)c2)cc1OC | inactive |  |
| Cc1ccc(C(=O)N2CCN(c3cc4c(cc3[N+](=O)[O-])n(C)c(=O)n4C)CC2)cc1 | inconclusive: 2 µM [inhibitor, full curve] |  |
| COc1ccc(C2=NOC(C(=O)NCc3ccco3)C2)cc1 (stereo unspecified) | inconclusive: 1 µM [inhibitor, partial curve, poor fit] |  |
| O=C(CN1C2=NCCN2c2ccccc21)c1ccc(Br)cc1 | inconclusive: 28.2 µM [inhibitor, single point] |  |
| O=C(Cc1ccccc1)NCc1ccc2c(c1)OCO2 | inactive |  |

| Compound | Potency | activity change, negative = inhibition |
| --- | --- | --- |
| Cc1cs/c(=N\N=C\c2ccccc2)n1Cc1ccco1 | inconclusive: 28.2 µM [inhibitor, single point] |  |
| CCOC(=O)CN1C(=O)NC2(CCCc3ccccc32)C1=O (stereo unspecified) | inactive |  |
| O=S(=O)(c1ccc(F)cc1)N1CCN(CC(O)COCc2cccs2)CC1 (stereo unspecified) | inactive |  |
| OCCCn1c(CCNc2nc(-c3ccc(F)cc3)cs2)nc2cc(C(F)(F)F)ccc21 | inconclusive: 28.2 µM [inhibitor, single point] |  |
| CN(C)c1ccc(-c2ccnc3c2CC(C)(C(=O)NCC2CCOCC2)O3)cc1 (stereo unspecified) | inactive |  |
| CCc1cccc(C)c1NC(=S)NCCc1c(C)[nH]c2ccc(C)cc12 | inconclusive: 7.94 µM [inhibitor, partial curve, poor fit] |  |
| CC[n+]1c(/C=C/Nc2ccccc2)oc2ccccc21 | inconclusive: 10 µM [inhibitor, single point] |  |
| Cc1cccc(Cn2cnc3ccccc32)c1 | inactive |  |
| COc1ccc(Cl)cc1NC(=O)NCC1CCN(Cc2cc(C)ccc2C)CC1 | inconclusive: 11.2 µM [inhibitor, single point] |  |
| CCCCN(CC)CCNC(=O)C1CCCN(c2ncnc3onc(C)c23)C1 (stereo unspecified) | inactive |  |
| CCS(=O)(=O)c1ncc(Cl)c(C(=O)Nc2ccccc2)n1 | inconclusive: 28.2 µM [inhibitor, single point] |  |
| COCCNC(=O)C(=O)N/N=C(\C)CC(=O)Nc1ccc(Cl)cc1Cl | inactive |  |
| CCCn1c(=N)n(CC(=O)C(C)(C)C)c2ccccc21 | inconclusive: 28.2 µM [inhibitor, single point] |  |
| O=S(=O)(NCC(c1ccco1)S(=O)(=O)c1cccs1)c1ccc(Cl)cc1 (stereo unspecified) | inactive |  |
| CC(=O)c1cccc(NS(=O)(=O)c2cc(-c3cnc(C4CC4)o3)ccc2C)c1 | inconclusive: 3.16 µM [inhibitor, partial curve, poor fit] |  |
| CCCN(C(=O)C1CCN(S(=O)(=O)c2ccc(OC)c(OC)c2)CC1)C1CCS(=O)(=O)C1 (stereo unspecified) | inactive |  |
| CCCCOc1ccc(C2=CSC3=NCCN23)cc1[N+](=O)[O-] |  | inconclusive: -63.7% [inhibitor] |
| N#Cc1c(N)sc2c1CCN(CCc1ccccc1)C2 | inactive |  |
| CN(C)S(=O)(=O)N1CCN(c2ccc([N+](=O)[O-])c(N3CCOCC3)c2)CC1 | inconclusive: 28.2 µM [inhibitor, single point] |  |
| O=C(CN1CCCC1)Nc1nc(-c2ccc3c(c2)CCN3C(=O)c2ccccc2F)cs1 | inconclusive: 28.2 µM [inhibitor, single point] |  |
| CN(C)S(=O)(=O)c1cccc(N=C2SCCN2Cc2ccccc2)c1 | inactive |  |
| COc1cccc(CNC(=O)[C@@H]2CCCN2C(=O)[C@H]2CCCCN2C(=O)c2cccs2)c1 | inactive |  |
| COc1ccc(C(=O)NC(=S)NC(C)(C)C)cc1Br | inconclusive: 25.1 µM [inhibitor, single point] |  |
| COc1ccc(-c2nn(-c3ccccc3)cc2C2NC(=O)NC(C)=C2C(=O)OC(C)C)cc1Cl (stereo unspecified) | inactive |  |

| Compound | Potency | activity change, negative = inhibition |
| --- | --- | --- |
| COc1ccc(CN2CCC(CO)(Cc3ccccc3C(F)(F)F)CC2)c(F)c1 | inconclusive: 12.6 µM [inhibitor, single point] |  |
| Cc1ccc(-n2nc(C)c3c(C)cc(=O)n(CC(=O)NC(C)c4ccccc4)c32)cc1 (stereo unspecified) | inactive |  |
| Nc1ncc2c(n1)CCN(c1ccc([N+](=O)[O-])cc1)C2 | inconclusive: 7.94 µM [inhibitor, partial curve] |  |
| O=C(COc1ccc2c3c(c(=O)oc2c1)CCC3)N[C@@H](Cc1ccccc1)C(=O)O | inactive |  |
| CCn1c2ccccc2c2cc(NC(=S)N3CCOCC3)ccc21 | inconclusive: 28.2 µM [inhibitor, single point] |  |
| C/C(=N/NC(=O)c1ccc2c(c1)OCO2)c1cccc([N+](=O)[O-])c1 | inactive |  |
| O=C(O)C1=C(C(=O)O)C2C=CC1C2 | inactive |  |
| Cc1cc2n(n1)CCC(=O)N2Cc1ccc(C(=O)Nc2ccc(F)cc2F)cc1 | inconclusive: 28.2 µM [inhibitor, single point] |  |
| COC(=O)[C@H]1Cc2c([nH]c3ccccc23)[C@H](c2ccccc2)N1 | inactive |  |
| Nc1nnn(-c2ccccc2)c1-c1ccccc1 | inconclusive: 28.2 µM [inhibitor, single point] |  |
| Cc1cc(N=Nc2ccccc2)c(NCC(O)C(O)C(O)CO)cc1C (stereo unspecified) | inconclusive: 8.91 µM [inhibitor, partial curve, poor fit] |  |
| CCOC(=O)N1CCN(C(=S)NC(=O)c2ccc(F)cc2)CC1 | inconclusive: 10 µM [inhibitor, partial curve, poor fit] |  |
| COc1cccc(CNc2nc(NC(C)C)nc3ccsc23)c1OC | inconclusive: 5.01 µM [inhibitor, partial curve] |  |
| COc1cccc(CN2CCN(Cc3cc4ccccc4o3)CC2CCO)c1 (stereo unspecified) | inactive |  |
| CCN(CC)S(=O)(=O)c1cc(NC(=O)CSc2nnc(N)s2)ccc1C | inactive |  |
| Cc1cc(Cl)ccc1NC(=S)NCc1cccs1 | inconclusive: 12.6 µM [inhibitor, single point] |  |
| CCOC(=O)c1sc(N2C(=O)C(O)=C(C(=O)c3ccco3)C2c2ccco2)nc1C (stereo unspecified) |  | inconclusive: -34% [inhibitor] |
| S=C(Nc1ccccc1Oc1ccccc1)NC1CCCC1 | inconclusive: 28.2 µM [inhibitor, single point] |  |
| COc1cc([N+](=O)[O-])cc(/C=N/NC(=O)C(C)Nc2ccccc2C)c1O (stereo unspecified) | inconclusive: 31.6 µM [inhibitor, single point] |  |
| COc1ccc(/C=C/C(=O)c2ccccc2O)cc1 | inconclusive: 0.501 µM [inhibitor, full curve, poor fit] |  |
| COc1cc(/C=N/NC(=O)C(=O)NCC2CCCO2)ccc1O (stereo unspecified) | inactive |  |
| COc1ccccc1C(CNC(=O)c1cccc(NS(=O)(=O)c2ccc(Br)cc2)c1)N(C)C (stereo unspecified) | inconclusive: 11.2 µM [inhibitor, single point] |  |
| Oc1ccc(C[C@@H]2CNCCN2CCCCC2CCCCC2)cc1 | inconclusive: 1.41 µM [inhibitor, partial curve, poor fit] |  |

Reference: PubChem BioAssay AID624418 (National Center for Advancing Translational Sciences (NCATS), 2012)
